Measured values published in paper PMC4336329 (PLoS ONE, 2015).
Screen size: about 310,000 compounds; about 2,200 (0.71%) showed an effect of 50% or more. Effects have a minus sign here. This is one part of the list.

target: human ether-à-go-go-related gene (hERG) potassium channel (human, UniProt Q12809); assay: primary screen, population patch clamp on CHO cells stably expressing hERG
Sequence (Q12809 whole entry, looked up): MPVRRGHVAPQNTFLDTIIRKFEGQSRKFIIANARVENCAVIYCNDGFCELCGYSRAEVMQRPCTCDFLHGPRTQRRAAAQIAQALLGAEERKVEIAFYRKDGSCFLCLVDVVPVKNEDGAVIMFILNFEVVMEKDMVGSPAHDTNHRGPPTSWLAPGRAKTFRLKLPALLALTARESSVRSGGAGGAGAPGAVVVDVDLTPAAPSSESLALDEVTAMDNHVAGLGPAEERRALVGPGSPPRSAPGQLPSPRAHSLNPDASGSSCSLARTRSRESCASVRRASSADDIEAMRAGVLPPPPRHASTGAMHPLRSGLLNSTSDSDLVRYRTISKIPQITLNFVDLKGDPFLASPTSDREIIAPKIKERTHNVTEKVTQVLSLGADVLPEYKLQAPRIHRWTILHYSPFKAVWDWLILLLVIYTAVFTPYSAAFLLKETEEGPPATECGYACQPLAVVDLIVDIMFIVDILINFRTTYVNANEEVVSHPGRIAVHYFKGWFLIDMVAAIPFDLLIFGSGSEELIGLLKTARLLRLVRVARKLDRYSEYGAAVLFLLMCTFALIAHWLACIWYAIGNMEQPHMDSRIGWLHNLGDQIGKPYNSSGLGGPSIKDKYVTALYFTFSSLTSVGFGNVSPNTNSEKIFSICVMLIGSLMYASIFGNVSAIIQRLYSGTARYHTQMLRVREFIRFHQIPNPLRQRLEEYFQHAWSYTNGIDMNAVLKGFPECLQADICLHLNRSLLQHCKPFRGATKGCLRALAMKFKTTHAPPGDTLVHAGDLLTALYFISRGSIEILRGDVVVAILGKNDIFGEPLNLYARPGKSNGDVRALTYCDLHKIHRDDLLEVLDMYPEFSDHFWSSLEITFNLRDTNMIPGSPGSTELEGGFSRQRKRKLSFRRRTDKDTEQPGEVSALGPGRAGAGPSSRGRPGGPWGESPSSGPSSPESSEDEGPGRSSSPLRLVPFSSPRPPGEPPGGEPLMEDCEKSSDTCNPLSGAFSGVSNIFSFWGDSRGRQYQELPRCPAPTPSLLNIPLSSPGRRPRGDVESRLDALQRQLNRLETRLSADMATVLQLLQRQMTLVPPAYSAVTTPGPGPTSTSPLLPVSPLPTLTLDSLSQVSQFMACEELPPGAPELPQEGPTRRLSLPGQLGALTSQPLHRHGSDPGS

SMILES	hERG current change (%, negative = inhibition) at 1uM [%]
CC1(C)CC(=O)C2=C(C1)NC(=S)C(C#N)C21CCCCC1 (stereo not shown)	10.1
CCOC(=O)c1ccc2ncc(C(=O)OCC)c(NCCN(C)C)c2c1	-19.3
CCCCN1CC(=O)N2[C@H](c3ccc(Cl)cc3)[C@@H]3C(=O)N(CC)C(=O)[C@@H]3[C@]2(Cc2ccccc2)C1=O	-18.7
CCOC(=O)C(C)(C)N(Cc1cccc(C)c1)S(=O)(=O)c1cccc([N+](=O)[O-])c1	13.3
NC(=O)c1cc(NC(=O)c2cc(Br)c(Br)s2)cc(C(N)=O)c1	10.2
COc1ccc(-c2cc(C(=O)Nc3ccc(S(=O)(=O)Nc4ncccn4)cc3)c3ccccc3n2)cc1	5.65
O=C(c1cc([N+](=O)[O-])cc([N+](=O)[O-])c1)N1CCN(C(=O)c2ccco2)CC1	-30.6
CCN(CC(=O)Nc1c(F)cccc1F)C(=O)/C=C/c1ccc(Br)s1	-15
NNC(=O)c1oc2nc(-c3ccco3)cc(-c3ccco3)c2c1N	14.7
CCOC(=O)N1CCN(C(=S)NC(=O)c2c(-c3c(Cl)cccc3Cl)noc2C)CC1	2.45
Cc1ccc2c(C)c(C(=O)N3CCCCC3CO)oc2c1C (stereo not shown)	14.6
COc1cc(/C=N\Nc2nc3ccccc3o2)cc(OC)c1OC	7.62
CC(C)CC1Nc2ccc(C(=O)NCc3ccc4c(c3)OCO4)cc2NC1=O (stereo not shown)	4.29
N#Cc1c(Cl)cccc1Oc1ccc(S(=O)(=O)Nc2ccccc2)cc1	10.9
Cc1ccc(N)cc1CN1CCCC1=O	4.66
CCc1nnc(NC(=O)c2cccc(S(=O)(=O)N3CCc4ccccc43)c2)s1	-6.24
COc1cc(C(c2c(C)[nH][nH]c2=O)c2c(C)[nH][nH]c2=O)ccc1OS(=O)(=O)c1ccc(C)cc1	11.3
C=CCOC(=O)C1=C[C@H](c2ccccc2)[C@@H](CCCO)[C@H](OCC)O1	8.79
Cc1ccc(-c2nc(C)sc2CC(=O)O)cc1	12.2
Cc1ccccc1/C=N/N=C1/NC(=O)CCS1	7.95
N#CC1(C#N)CC(C=O)=C(N)C1(C#N)CC(=O)C12CC3CC(CC(C3)C1)C2 (stereo not shown)	14.2
CCc1cc(=O)oc2c3c(cc(OCC(=O)NCCC(=O)O)c12)OC(C)(C)CC3	17.4

SMILES	hERG current change (%, negative = inhibition) at 1uM [%]
Cc1cc(C)c2nc(NCc3ccccc3O)sc2c1	12.8
C(=N\n1cnnc1)/c1ccc(N2CCOCC2)s1	6.52
CN(C)/C=C(\c1cnc(Cl)s1)S(=O)(=O)c1ccccc1	20.4
O=C(CSc1ccccc1C(=O)O)Nc1ccc2c(c1)OCO2	1.97
Cc1ccc(C(C)(C)C)c(OCCOCCN2CCCC2)c1	6.49
CN1CCN(C(c2cccc(Cl)c2)c2ccccc2Cl)CC1.O=C(O)/C=C\C(=O)O (stereo not shown)	-34.6
COc1ccc(N=Nc2c(C)[nH]c3ccccc23)cc1	13.6
COc1ccc(C(CCN2CCN(c3ccccc3)CC2)c2c(OC)cc(OC)c3c(-c4ccccc4)cc(=O)oc23)cc1 (stereo not shown)	6.92
COc1ccc(C2=NOC(C3(S(=O)(=O)c4ccccc4)CC(O)C3)C2)cc1 (stereo not shown)	7
CC(C)C1C(c2ccccc2)N(C)C(c2ccccc2)CC1(O)c1ccccc1 (stereo not shown)	-7.38
CS(=O)(=O)c1cccc(-c2nnc(NC(=O)c3ccc(S(=O)(=O)N4CCCC4)cc3)o2)c1	-1.18
COC(=O)c1sc2nc(C)cc(-c3ccccc3)c2c1N	10.5
COc1ccccc1-n1nnnc1SCC(=O)N1CCCC1=O	-4.23
CC(C)(O)C#Cc1ccc(C(=O)N2CCCC(CNS(=O)(=O)c3cccs3)C2)o1 (stereo not shown)	6.44
CN(Cc1ccccc1)C(=O)CCC1CCN(S(=O)(=O)N(C)C)CC1	6.65
COC(=O)c1c(NC(C)=O)csc1C	17.3
O=C(O)C(=O)O.Oc1ccccc1N1CCN(CC(O)COC2CCCc3ccccc32)CC1 (stereo not shown)	3.51
O=S(=O)(NCCc1cn2ccccc2n1)c1cccs1	1.39
COCCCNC(=O)c1cc(C)nc2ccc(F)cc12	-1.73
O=c1c2c(nc3c(-c4cccc5ccccc45)c[nH]n13)CCC2	11.8
CCc1cccc(C)c1NC(=O)c1ccc2nc(N3CCOCC3)sc2c1	7.49
